From publication PMC9811620
Positions count from the first letter of the chain named. In names and notes the source's numbering stands. No constants are given. Whether binding was seen depends on the method and setting. Binding seen in cells or lysates may run through a third protein. Some results given as binding are weak or reduced against the parent protein; the word gives no strength. Each block holds one molecule with its values, some of them ahead of it.

Amino acid sequences for entries named in this document (tags omitted). A change or cut given only in a name is not applied to a line headed by its entry. Chains listed by the source or under a name are the forms on record and can include a tag or linker. Residues count along the entry.
UniProt Q9JKF1: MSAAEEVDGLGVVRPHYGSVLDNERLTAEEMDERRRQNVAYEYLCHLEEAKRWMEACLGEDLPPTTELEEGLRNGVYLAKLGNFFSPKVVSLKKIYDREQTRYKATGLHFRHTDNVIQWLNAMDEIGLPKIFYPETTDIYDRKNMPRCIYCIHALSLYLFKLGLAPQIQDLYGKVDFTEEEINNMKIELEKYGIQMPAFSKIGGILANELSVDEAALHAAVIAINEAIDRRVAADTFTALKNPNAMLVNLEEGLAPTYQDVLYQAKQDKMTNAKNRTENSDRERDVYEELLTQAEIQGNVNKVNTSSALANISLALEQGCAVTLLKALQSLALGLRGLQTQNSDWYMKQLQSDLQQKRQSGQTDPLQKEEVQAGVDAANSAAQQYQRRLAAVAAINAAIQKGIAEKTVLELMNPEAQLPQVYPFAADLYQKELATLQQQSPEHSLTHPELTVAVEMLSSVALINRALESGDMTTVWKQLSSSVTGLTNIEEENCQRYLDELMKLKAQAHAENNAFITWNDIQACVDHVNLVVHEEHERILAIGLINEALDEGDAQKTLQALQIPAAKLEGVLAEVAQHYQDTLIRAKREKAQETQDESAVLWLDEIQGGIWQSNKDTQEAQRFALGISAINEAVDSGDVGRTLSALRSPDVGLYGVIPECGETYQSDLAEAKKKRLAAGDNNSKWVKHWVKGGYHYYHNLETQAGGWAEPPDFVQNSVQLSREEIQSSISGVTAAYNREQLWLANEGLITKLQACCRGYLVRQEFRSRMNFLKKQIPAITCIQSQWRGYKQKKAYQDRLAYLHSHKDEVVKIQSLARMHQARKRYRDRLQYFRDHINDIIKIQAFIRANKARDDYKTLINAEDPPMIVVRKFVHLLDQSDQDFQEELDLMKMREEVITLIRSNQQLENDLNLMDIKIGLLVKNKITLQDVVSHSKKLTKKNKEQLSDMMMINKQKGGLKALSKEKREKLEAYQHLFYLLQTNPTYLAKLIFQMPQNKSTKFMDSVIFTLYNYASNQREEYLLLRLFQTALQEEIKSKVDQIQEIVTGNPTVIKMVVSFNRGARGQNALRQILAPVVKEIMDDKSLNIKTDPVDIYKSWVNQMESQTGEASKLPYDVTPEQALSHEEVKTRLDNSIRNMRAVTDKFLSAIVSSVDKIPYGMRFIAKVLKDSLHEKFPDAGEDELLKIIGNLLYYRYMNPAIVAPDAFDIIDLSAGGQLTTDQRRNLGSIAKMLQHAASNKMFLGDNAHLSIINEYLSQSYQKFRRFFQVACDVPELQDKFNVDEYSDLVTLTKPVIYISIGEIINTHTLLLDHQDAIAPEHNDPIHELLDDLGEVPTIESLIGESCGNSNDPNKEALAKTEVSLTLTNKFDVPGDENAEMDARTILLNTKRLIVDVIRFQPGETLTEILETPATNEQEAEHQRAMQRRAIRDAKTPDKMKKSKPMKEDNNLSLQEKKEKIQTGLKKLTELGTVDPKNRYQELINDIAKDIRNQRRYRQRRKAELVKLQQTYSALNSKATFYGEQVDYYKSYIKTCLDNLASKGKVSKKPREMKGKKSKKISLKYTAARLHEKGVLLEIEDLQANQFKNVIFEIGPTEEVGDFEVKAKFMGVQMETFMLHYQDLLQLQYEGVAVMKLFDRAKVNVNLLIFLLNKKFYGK
mouse IQGAP1 deletion mutant lacking the IQ domain (4 IQ motifs, residues 745-856), in HEK293 cells (Q9JKF1, form named): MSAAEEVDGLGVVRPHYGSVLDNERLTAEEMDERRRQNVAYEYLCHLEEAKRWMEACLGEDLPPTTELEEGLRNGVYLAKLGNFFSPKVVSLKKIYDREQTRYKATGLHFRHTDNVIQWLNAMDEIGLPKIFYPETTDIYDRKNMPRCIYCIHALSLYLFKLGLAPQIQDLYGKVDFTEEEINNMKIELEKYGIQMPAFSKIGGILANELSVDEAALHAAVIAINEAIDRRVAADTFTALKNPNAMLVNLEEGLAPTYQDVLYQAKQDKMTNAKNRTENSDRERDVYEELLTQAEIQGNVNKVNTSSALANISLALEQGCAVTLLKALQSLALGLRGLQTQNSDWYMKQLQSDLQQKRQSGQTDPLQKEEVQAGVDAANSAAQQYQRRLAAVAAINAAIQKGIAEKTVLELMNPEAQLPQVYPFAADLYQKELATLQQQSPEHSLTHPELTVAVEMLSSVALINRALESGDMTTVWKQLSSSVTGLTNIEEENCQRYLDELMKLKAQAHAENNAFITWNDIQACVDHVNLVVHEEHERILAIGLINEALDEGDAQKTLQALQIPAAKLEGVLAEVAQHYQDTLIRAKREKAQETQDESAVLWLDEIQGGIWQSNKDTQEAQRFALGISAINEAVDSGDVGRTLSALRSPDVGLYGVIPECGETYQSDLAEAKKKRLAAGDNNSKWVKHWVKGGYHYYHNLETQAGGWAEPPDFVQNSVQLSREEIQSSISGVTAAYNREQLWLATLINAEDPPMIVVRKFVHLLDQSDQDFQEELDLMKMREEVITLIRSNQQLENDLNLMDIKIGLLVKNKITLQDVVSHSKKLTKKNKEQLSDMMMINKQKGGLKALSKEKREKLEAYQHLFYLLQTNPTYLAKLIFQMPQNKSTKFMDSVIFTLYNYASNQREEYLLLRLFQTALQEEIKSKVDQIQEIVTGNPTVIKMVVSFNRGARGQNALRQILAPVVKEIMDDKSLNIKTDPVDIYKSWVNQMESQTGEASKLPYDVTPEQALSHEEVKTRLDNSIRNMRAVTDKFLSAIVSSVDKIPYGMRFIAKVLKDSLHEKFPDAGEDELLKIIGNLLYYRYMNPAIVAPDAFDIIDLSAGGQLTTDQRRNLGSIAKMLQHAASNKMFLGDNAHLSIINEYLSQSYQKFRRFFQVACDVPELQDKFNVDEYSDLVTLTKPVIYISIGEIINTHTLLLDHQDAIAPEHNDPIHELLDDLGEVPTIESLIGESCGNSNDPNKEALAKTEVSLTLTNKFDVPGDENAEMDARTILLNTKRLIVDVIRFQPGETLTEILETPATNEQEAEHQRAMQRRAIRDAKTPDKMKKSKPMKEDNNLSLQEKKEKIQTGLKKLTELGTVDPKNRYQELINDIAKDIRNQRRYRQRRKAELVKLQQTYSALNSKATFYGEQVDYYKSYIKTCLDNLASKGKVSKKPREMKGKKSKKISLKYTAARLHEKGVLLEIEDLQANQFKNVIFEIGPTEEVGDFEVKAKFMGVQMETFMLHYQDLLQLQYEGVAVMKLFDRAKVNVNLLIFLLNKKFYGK
UniProt P46940: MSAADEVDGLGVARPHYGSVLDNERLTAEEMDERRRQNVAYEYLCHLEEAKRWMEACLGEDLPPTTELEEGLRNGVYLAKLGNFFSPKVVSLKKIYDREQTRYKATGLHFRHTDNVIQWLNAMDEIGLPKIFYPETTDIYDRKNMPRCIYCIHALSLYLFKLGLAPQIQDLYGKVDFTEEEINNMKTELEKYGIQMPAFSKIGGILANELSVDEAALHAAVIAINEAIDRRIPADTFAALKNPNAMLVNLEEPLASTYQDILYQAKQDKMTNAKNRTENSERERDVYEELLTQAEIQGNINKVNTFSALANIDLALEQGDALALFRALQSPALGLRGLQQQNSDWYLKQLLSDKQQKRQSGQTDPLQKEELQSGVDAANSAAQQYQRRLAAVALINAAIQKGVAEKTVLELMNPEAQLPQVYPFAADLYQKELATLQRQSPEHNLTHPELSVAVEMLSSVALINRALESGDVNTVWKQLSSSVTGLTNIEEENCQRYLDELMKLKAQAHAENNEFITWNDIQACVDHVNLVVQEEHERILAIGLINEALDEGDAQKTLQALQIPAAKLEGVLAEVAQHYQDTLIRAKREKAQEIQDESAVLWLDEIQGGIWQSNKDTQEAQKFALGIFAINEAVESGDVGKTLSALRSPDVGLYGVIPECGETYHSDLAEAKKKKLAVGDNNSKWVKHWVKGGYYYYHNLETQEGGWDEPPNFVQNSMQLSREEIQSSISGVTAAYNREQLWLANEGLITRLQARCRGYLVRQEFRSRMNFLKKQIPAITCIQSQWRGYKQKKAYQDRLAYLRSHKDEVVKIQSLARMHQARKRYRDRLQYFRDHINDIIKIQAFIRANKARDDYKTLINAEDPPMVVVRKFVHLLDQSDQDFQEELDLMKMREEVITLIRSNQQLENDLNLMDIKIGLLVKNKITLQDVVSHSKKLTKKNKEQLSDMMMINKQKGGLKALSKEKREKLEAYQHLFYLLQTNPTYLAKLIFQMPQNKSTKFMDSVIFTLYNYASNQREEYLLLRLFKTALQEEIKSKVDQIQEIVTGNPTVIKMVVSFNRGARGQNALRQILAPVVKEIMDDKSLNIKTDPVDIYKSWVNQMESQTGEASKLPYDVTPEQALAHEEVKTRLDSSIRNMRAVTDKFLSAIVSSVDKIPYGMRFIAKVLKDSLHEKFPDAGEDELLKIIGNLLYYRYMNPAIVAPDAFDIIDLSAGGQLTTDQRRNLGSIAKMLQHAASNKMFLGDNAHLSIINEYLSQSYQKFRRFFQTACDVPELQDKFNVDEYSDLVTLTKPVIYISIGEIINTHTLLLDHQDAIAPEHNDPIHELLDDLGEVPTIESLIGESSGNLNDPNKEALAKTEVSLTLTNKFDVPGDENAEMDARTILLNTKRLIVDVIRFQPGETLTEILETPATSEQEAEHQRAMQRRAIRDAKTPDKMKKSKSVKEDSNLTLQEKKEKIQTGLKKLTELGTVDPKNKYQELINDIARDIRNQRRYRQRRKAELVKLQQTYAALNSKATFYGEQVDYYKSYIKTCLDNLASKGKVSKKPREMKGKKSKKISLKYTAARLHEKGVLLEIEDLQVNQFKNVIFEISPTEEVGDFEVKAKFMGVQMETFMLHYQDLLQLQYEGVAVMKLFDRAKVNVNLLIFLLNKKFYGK
UniProt P46935: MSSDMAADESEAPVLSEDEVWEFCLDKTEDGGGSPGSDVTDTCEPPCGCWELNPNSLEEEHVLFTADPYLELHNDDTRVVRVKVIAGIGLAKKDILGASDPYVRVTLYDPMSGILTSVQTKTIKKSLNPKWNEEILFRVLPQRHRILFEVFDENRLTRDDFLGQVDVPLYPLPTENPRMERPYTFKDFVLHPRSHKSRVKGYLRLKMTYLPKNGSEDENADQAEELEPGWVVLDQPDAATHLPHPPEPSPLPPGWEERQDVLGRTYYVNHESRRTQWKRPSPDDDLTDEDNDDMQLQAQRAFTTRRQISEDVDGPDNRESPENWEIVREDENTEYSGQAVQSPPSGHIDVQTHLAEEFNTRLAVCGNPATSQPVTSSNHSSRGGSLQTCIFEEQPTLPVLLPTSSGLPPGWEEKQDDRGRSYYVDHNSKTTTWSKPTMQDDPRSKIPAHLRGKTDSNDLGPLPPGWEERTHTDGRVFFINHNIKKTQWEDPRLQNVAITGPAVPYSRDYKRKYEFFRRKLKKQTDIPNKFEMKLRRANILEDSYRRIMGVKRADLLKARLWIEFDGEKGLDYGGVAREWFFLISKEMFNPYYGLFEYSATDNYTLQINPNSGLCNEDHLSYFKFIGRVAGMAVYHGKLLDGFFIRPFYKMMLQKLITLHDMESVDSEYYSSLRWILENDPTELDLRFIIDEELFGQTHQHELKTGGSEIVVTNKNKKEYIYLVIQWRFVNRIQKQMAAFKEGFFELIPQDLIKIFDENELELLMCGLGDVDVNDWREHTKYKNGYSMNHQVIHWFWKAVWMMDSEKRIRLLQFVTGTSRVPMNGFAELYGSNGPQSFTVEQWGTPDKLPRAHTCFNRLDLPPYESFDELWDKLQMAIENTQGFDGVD
UniProt P60766: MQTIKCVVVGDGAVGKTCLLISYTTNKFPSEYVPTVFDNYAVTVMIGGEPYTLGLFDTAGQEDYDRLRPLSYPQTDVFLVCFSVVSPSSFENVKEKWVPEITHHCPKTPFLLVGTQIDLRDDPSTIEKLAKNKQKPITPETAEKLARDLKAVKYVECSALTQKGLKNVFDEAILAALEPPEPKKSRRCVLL

Columns and labels:
[1] = target: T1, Gasdermin D (GSDMD), endogenous in HT-29 cells (human (endogenous in HT-29)) (UniProt P57764); experiment: proximity ligation; Duolink PLA of endogenous IQGAP1 and GSDMD in HT-29 cells (scramble or IQGAP1 siRNA) after LPS 4 h and ATP 30 min
T1 sequence: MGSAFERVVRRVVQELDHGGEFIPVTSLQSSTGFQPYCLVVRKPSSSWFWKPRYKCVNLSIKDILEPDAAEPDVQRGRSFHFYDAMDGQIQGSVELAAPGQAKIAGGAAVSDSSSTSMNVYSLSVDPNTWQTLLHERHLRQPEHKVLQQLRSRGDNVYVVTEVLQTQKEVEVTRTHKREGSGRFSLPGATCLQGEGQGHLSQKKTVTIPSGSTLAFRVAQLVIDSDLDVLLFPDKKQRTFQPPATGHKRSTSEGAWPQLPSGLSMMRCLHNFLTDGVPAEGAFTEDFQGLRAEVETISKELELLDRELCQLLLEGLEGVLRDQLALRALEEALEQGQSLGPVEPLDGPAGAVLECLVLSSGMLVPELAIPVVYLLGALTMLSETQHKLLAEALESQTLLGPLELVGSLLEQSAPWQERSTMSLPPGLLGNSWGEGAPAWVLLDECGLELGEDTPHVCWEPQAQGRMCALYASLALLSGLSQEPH

[2] = target: T2, Gasdermin D (GSDMD), endogenous in YAMC cells (mouse (endogenous in YAMC)) (UniProt Q9D8T2); experiment: co-IP; endogenous proteins from YAMC lysates (wild-type and knockout cells; untreated, LPS 4 h, or LPS plus ATP); lysis buffer with 0.5% Triton X-100, 50 mM Tris-HCl pH 7.4, 150 mM NaCl; antibody and protein A/G Sepharose overnight at 4°C; Western blot
T2 sequence: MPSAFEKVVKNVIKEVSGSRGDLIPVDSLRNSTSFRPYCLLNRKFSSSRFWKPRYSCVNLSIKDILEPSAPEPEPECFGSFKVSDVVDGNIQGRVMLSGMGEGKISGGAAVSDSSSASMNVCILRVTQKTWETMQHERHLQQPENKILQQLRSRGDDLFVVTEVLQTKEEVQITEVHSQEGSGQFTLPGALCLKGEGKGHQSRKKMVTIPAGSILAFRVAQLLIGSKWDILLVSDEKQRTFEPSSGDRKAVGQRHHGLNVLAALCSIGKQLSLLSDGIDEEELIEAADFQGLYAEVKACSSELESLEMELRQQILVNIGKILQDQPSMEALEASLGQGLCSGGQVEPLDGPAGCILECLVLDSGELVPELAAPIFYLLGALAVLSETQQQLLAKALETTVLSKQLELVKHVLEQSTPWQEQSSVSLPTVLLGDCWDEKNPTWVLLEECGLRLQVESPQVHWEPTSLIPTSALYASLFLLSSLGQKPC

[3] = target: T2, Gasdermin D (GSDMD), endogenous in YAMC cells (mouse (endogenous in YAMC)); experiment: proximity ligation; Duolink PLA of endogenous proteins in YAMC cells after LPS or LPS plus ATP, cells fixed with 4% PFA, primary antibodies overnight at 4°C; knockout cells as controls
[4] = target: Ras GTPase-activating-like protein IQGAP1, endogenous in YAMC cells (mouse (endogenous in YAMC)) (UniProt Q9JKF1); experiment: co-IP; endogenous proteins from YAMC lysates (wild-type and knockout cells; untreated, LPS 4 h, or LPS plus ATP); lysis buffer with 0.5% Triton X-100, 50 mM Tris-HCl pH 7.4, 150 mM NaCl; antibody and protein A/G Sepharose overnight at 4°C; Western blot
[5] = target: Ras GTPase-activating-like protein IQGAP1, endogenous in YAMC cells (mouse (endogenous in YAMC)) (UniProt Q9JKF1); experiment: proximity ligation; Duolink PLA of endogenous proteins in YAMC cells after LPS or LPS plus ATP, cells fixed with 4% PFA, primary antibodies overnight at 4°C; knockout cells as controls
[6] = target: wild-type full-length mouse IQGAP1 (FL) restored in IQGAP1 KO YAMC cells (mouse) (UniProt Q9JKF1); experiment: proximity ligation; Duolink PLA in IQGAP1 KO YAMC cells restored with IQGAP1 FL, ΔIQ or ΔGRD, LPS plus ATP treated
[7] = target: T2, Gasdermin D (GSDMD), endogenous in YAMC cells (mouse (endogenous in YAMC)); experiment: as above
[8] = target: T2, Gasdermin D (GSDMD), endogenous in YAMC cells (mouse (endogenous in YAMC)); experiment: co-IP; endogenous proteins from YAMC lysates (wild-type and knockout cells; untreated, LPS 4 h, or LPS plus ATP); lysis buffer with 0.5% Triton X-100, 50 mM Tris-HCl pH 7.4, 150 mM NaCl; antibody and protein A/G Sepharose overnight at 4°C; Western blot; remark: listed apart in the source
[9] = target: Ras GTPase-activating-like protein IQGAP1, endogenous in YAMC cells (mouse (endogenous in YAMC)) (UniProt Q9JKF1); experiment: as above; remark: listed apart in the source
[10] = target: full-length mouse IQGAP1 overexpressed in HEK293 cells (mouse) (UniProt Q9JKF1); experiment: co-IP; proteins overexpressed in HEK293 cells; lysis buffer with 0.5% Triton X-100, 50 mM Tris-HCl pH 7.4, 150 mM NaCl; antibody and protein A/G Sepharose overnight at 4°C; Western blot
[11] = target: mouse IQGAP1 deletion mutant lacking the IQ domain (4 IQ motifs, residues 745-856), in HEK293 cells (mouse) (UniProt Q9JKF1); experiment: as above
[12] = target: Ras GTPase-activating-like protein IQGAP1, endogenous in YAMC cells (mouse (endogenous in YAMC)) (UniProt Q9JKF1); experiment: co-IP; GSDMD KO YAMC cells restored with GSDMD (WT or D276A), endogenous IQGAP1; cells treated as indicated; Western blot

- binding [1]: binds
Molecule: IQGAP1, endogenous in HT-29 cells (from UniProt P46940 1-1657)

- binding [2]: binds
Molecule: NEDD4, endogenous in YAMC cells (from UniProt P46935 1-887)

- binding [2]: binds
- binding [3]: binds
Molecule: Ras GTPase-activating-like protein IQGAP1, endogenous in YAMC cells (from UniProt Q9JKF1 1-1657)

- binding [4]: binds
- binding [5]: binds
- binding [6]: binds
Molecule: CDC42, endogenous in YAMC cells (from UniProt P60766 1-191)

- binding [7]: no binding
Molecule: mouse IQGAP1 with deletion in its IQ domain (ΔIQ) restored in IQGAP1 KO YAMC cells (from UniProt Q9JKF1 1-1657)

- binding [8]: binds
B1: CDC37, endogenous in YAMC cells (protein, UniProt Q61081 1-379)
chain: MVDYSVWDHIEVSDDEDETHPNIDTASLFRWRHQARVERMEQFQKEKEELDRGCRECKRKVAECQRKLKELEVAESDGQVELERLRAEAQQLRKEERSWEQKLEDMRKKEKNMPWNVDTLSKDGFSKSMVNTKPEKAEEDSEEAREQKHKTFVEKYEKQIKHFGMLHRWDDSQKYLSDNVHLVCEETANYLVIWCIDLEVEEKCALMEQVAHQTMVMQFILELAKSLKVDPRACFRQFFTKIKTADHQYMEGFKYELEAFKERVRGRAKLRIEKAMKEYEEEERKKRLGPGGLDPVEVYESLPEELQKCFDVKDVQMLQDAISKMDPTDAKYHMQRCIDSGLWVPNSKSGEAKEGEEAGPGDPLLEAVPKAGNEKDVSA

- binding [9]: binds
B2: Tsg101, endogenous in YAMC cells (protein, UniProt Q61187 1-391)
chain: MAVSESQLKKMMSKYKYRDLTVRQTVNVIAMYKDLKPVLDSYVFNDGSSRELVNLTGTIPVRYRGNIYNIPICLWLLDTYPYNPPICFVKPTSSMTIKTGKHVDANGKIYLPYLHDWKHPRSELLELIQIMIVIFGEEPPVFSRPTVSASYPPYTATGPPNTSYMPGMPSGISAYPSGYPPNPSGYPGCPYPPAGPYPATTSSQYPSQPPVTTVGPSRDGTISEDTIRASLISAVSDKLRWRMKEEMDGAQAELNALKRTEEDLKKGHQKLEEMVTRLDQEVAEVDKNIELLKKKDEELSSALEKMENQSENNDIDEVIIPTAPLYKQILNLYAEENAIEDTIFYLGEALRRGVIDLDVFLKHVRLLSRKQFQLRALMQKARKTAGLSDLY

- binding [10]: binds
B3: mouse GSDMD cleavage mutant D276A overexpressed in HEK293 cells (protein, UniProt Q9D8T2 1-487)
chain: T2 sequence with D276A

- binding [10]: binds
B4: full-length mouse GSDMD I105N (pyroptosis mutant) (protein, UniProt Q9D8T2 1-487)
chain: T2 sequence with I105N

- binding [11]: no binding
- binding [10]: binds
B5: full-length mouse GSDMD overexpressed in HEK293 cells (protein, UniProt Q9D8T2 1-487)
chain: T2 sequence

- binding [12]: binds
B6: mouse GSDMD cleavage mutant D276A restored in GSDMD KO YAMC cells (protein, UniProt Q9D8T2 1-487)
chain: T2 sequence with D276A
